B1: scFv phage antibody SC02-113 (scFv)
scFv: QVQLQESGAGLLKPSETLSLTCAVYGGSFSGYYWSWIRQPPGKGLEWIGYIYYSGSTNYNPSLKSRVTISVDTSKNQFSLKLSSVTAADTAVYYCAKAPYMMYFDSWGQGTLVTVSSGGGGSGGGGSGGGGSEIELTQSPSSLSASVGDRVTIT[about 80 residues omitted]FGQGTKVEIKR
B2: scFv phage antibody SC02-114 (scFv)
scFv: EVQLVESGGGLVQPGGSLRLSCAASGFTFSSYSMNWVRQAPGKGLEWVSYISSSSSTIYYADSVKGRFTISRDNAKNSLYLQMNSLRDEDTAVYYCAKETWWQSFDYWGQGTLVTVSSGGGGSGGGGSGGGGSEIELTQSPSSLSASVGDRVTIT[about 80 residues omitted]FGQGTKVEIKR
B3: scFv phage antibody SC02-117 (scFv)
scFv: EVQLVESGGGLVHPGGSLRLSCAGSGFTFSSYAMHWVRQAPGKGLEWVSAIGTGGGTYYADSVKGRFTISRDNAKNSLYLQMNSLRAEDTAVYYCARSTPWFSFDYWGQGTLVTVSSGGGGSGGGGSGGGGSEIELTQSPSSLSASVGDRVTIT[about 80 residues omitted]FGQGTKVEIKR
B4: scFv phage antibody SC02-118 (scFv)
scFv: EVQLVESGGGQVHPGGSLRLSCAGSGFTFSSYAMHWVRQAPGKGLEWVSAISTGGGTYYADSVKGRFTISRDNAKNSLYLQMNSLRAEDTAVYYCARSAWWLSFDSWGQGTLVTVSSGGGGSGGGGSGGGGSEIELTQSPSSLSASVGDRVTIT[about 80 residues omitted]FGQGTKVEIKR
B5: scFv phage antibody SC02-116 (scFv)
scFv: [about 100 residues omitted]DALWLAFDYWGQGTLVTVSSGGGGSGGGGSGGGGSEIELTQSPSSLSASVGDRVTITCRASQSISSYLNWYQQKPGKAPKLLIYAASSLQSGVPSRFSGSGSGTDFTLTISSLQPEDFATYYCAQRSYPPPKFGQGTKVDIKR

Key:
human CD1a = target: T1, human CD1a (human, UniProt P06126); assay: flow cytometry, phage antibody on C1R cells transfected with CD1a
Sequence of human CD1a (P06126 17-327): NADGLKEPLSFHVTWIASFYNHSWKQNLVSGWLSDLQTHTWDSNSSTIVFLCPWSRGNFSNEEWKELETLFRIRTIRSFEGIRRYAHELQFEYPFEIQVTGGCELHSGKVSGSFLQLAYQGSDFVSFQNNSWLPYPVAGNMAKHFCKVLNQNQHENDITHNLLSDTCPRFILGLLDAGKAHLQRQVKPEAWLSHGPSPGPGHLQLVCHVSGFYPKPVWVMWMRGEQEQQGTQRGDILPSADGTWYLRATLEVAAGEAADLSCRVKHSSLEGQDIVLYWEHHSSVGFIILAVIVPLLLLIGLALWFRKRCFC
T1 construct: whole, on cells; also called C1R-CD1a; CR1-CD1a
Method: (§1) In total, three selection rounds were performed and after both the second and third round, phage antibodies were tested for specific binding on a variety of cell-types, i.e., cultured DCs, PBLs, tonsil and synovial fluid cell suspensions, several cell lines including K562, U266, IM9, U937, THP, CEM, Fravel, HL60, Raji, RPMI8226, HepgII, HELA, HT29 and Jurkatt, a C1R cell line transfected with the molecule CD1a, and A431 cell lines transfected with the molecules CD80, CD83, and CD86. For staining of cells, 100 μl of the phage antibodies were blocked by adding 50 μl of PBS containing 4% milk powder for 15 minutes at room temperature. Next, 5×10⁵ cells in 50 μl of PBS containing 1% BSA were added to the blocked phage antibodies and the mixture obtained was incubated on ice for one hour. After that, the obtained mixture was washed three times with 200 μl PBS containing 1% BSA. To detect cell-bound phage antibodies, the cells were incubated with 20 μl of a 1:800 dilution of sheep anti-M13 polyclonal antibody for 20 minutes on ice. Thereafter, the cells were washed with PBS containing 1% BSA and incubated with 20 μl of a 1:700 dilution of PE-conjugated donkey anti-sheep polyclonal antibody for 20 minutes on ice.
(§2) To visualize DCs the cells were washed again with PBS containing 1% BSA, stained with 10 μl 1:10 diluted FITC-conjugated anti-CD1a antibody (BD PharMingen) and suspended in 200 μl of PBS containing 1% BSA. Flow cytometric analyses were performed using a FACScan (Becton Dickinson).
(§3) The twenty scFv phage antibodies derived from the selections described above bound exclusively to the cell line transfected with CD1a (see lower right panel of FIG. 2 for binding of the representative scFv phage antibody called SC02-113 to the CD1a-transfected cell line). The C1R cells transfected with vector containing a CD1a insert were clearly positive, whereas the C1R cell line transfected with vector without CD1a insert (mock-transfected) was negative after staining with the phage antibodies (see lower left panel of FIG. 2 for binding of the representative scFv phage antibody called SC02-113 to the mock-transfected cell line). The A431 cell lines transfected with CD80, CD83 and CD86 were negative after staining with the phage antibodies (data not shown).

CD80 = target: T2, CD80 (UniProt P33681 35-288, limits assumed); assay: flow cytometry, phage antibody on transfected A431 cells
T2 construct: whole, on cells; also called A431 cell line transfected with CD80
T2 sequence (looked up): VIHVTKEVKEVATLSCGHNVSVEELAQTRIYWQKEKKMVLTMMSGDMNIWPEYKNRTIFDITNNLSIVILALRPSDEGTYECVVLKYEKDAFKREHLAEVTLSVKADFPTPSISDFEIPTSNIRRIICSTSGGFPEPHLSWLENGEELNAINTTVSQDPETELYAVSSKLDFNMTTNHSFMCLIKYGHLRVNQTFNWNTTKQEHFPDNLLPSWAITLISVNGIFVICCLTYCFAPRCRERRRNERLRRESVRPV
Method: as §1, §2, §3

CD86 = target: T3, CD86 (UniProt P42081 24-329, limits assumed); assay: as above
T3 construct: whole, on cells; also called A431 cell line transfected with CD86
T3 sequence (looked up): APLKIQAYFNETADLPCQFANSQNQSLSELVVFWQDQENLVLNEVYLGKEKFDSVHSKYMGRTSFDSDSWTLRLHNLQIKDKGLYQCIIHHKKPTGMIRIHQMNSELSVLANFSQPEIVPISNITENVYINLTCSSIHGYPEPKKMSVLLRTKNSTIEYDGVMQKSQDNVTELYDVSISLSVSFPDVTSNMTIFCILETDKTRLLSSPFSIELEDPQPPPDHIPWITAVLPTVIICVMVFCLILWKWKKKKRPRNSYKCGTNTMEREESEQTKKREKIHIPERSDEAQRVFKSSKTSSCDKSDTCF
Method: as §1, §2, §3

CD83 = target: T4, CD83 (UniProt Q01151 20-205, limits assumed); assay: as above
T4 construct: whole, on cells; also called A431 cell line transfected with CD83
T4 sequence (looked up): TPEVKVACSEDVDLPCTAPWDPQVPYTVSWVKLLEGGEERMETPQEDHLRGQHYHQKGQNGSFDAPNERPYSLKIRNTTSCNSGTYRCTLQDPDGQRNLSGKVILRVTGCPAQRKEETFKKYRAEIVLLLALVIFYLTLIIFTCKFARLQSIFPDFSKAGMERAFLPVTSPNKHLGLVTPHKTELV
Method: as §1, §2, §3

Binder | binding result (human CD1a) | binding result (CD80) | binding result (CD86) | binding result (CD83)
B1 | binds | no binding | no binding | no binding
B2 | binds | no binding | no binding | no binding
B3 | binds | no binding | no binding | no binding
B4 | binds | no binding | no binding | no binding
B5 | – | no binding | no binding | no binding

Source: patent US20060257397A1 (CRUCELL HOLLAND B V, published 2006)
